The source gives no read counts; variants with many changes may rest on few reads.
B1: LINE1-full (parent)
chain: UACGUAGGUGGUUUUCCCCUGAUAGUGCUAAGGGGGCCUGGAAGUUUGGACUGGGCAGAGCUCAACACAGCGUGGCAAAGUGGCUGUGGCUAGACUGCCUCUCUGGAUUCCUCGUCACUCAGCAGGGCAUCUCUGAGAGAAAUGCC

Variants of: B1
Experiment: self-cleavage, relative activity (ratio to wild type); higher = more cleavage; in vitro, sequencing; the parent is a self-cleaving ribozyme

Row | Variant | self-cleavage
1 | U5C U15C U81C | 1.84
2 | C3U U85G A142G | 0.37
3 | G4A G74A U96G | 0.24
4 | G4A U100C U112C | 1.15
5 | A6C U112C U119A | 0.68
6 | A6G G27A A69U A129G U134G A140G | 0.07
7 | G4U A65G U134C | 0
8 | A6G A57G A117G | 0
9 | U5A U26A C37G A59G U96A | 0.27
10 | U5C A24U G75A U134C | 1.67
11 | U5A U14C U85C U87C U143A | 0.51
12 | C3U U14C G34A C38U U45C U73A | 1.04
13 | C3U U112C U119C U134A | 0.5
14 | G4A C128U U132C A141G | 0.91
15 | A6G A42G C103A | 1.23
16 | A6G A24G A64G U132C | 0.98
17 | U5A U20C U96C C131U A140U U143A | 0.62
18 | U5A U12G U26C U85C A140G U143C | 0
19 | G4C U5C U52G U62C A136G | 0.15
20 | U5C A78G G89A U104C U109C | 0.17
21 | A6G A31G U47A A129G | 0.75
22 | G4A A31C U81A A140G | 1.57
23 | U5A A24U C38U A57C A94U C111U | 0.06
24 | U5C A31G A64G U104C | 0.88

Row | Variant | self-cleavage
25 | A6G A142G U143C | 1.02
26 | U5C G41A A69U U87A | 0.02
27 | G4A A77G A142G U143C | 1.25
28 | G4A U9C U62C A117U A142G | 0
29 | G4A A22G A136G | 1.11
30 | A6G G33U U112C A142G | 0.9
31 | U5C U23A A78G U109C A138G | 1.89
32 | A6G A57G U104A A117G | 0
33 | U5A U12C U104C U112C | 0.71
34 | G4A G10A A42G U104A A136G | 0
35 | A6G A77G U104A A107U A124U | 1.6
36 | G4A A57U U102C A140G A141G | 0.18
37 | U5C A22G A77U A129G | 1.45
38 | U5C U23A C68U U115C A117C | 1.21
39 | U5A U52C U108A | 1.27
40 | U5A U20C U85A U104C | 0.09
41 | A6G G7A U15A A43G U81C | 0.92
42 | A6G C95U A107G | 0.26
43 | U5C G97A U100C U132C | 0.71
44 | U5A U26C U45A U119C U134A A141G A142G | 0.86
45 | A6G A124C U130C | 1.67
46 | U5A U13C U29A | 0
47 | G4A U46A A57G A69U A78U U81A A117G | 0.09
48 | U5C U15C A78U A136C A138G | 1.29

Row | Variant | self-cleavage
49 | G4U U47A U112C | 1.44
50 | U5C A77G A121G U143A | 1.84
51 | A6G A67G U85A | 0.12
52 | U5C A121G U130C | 1.12
53 | A6G A43G C51U A57G U96C | 1.41
54 | G4A U73C U112C U119C | 1.15
55 | A6G A24U C128U | 1.21
56 | A6G U12A U119C | 1.31
57 | G4C C19U U62C | 0.24
58 | U5C A50U A59U U119C G122A | 1.17
59 | A6G G35A U73A U109C | 2.42
60 | G4A A30G A78G G126A U132C A142G | 1.06
61 | C3U U29A C38U | 0.77
62 | G4A U14C U26A U96C | 0.1
63 | U5C U45C U85C A138G | 0
64 | G4A A43G A77U U96C U100C | 0.17
65 | A6G G33C A64C A67G G127U A138G | 0
66 | U5A U12C C90U | 0.03
67 | U5C A50G U85A U96C | 0
68 | U5A A64U A69G | 0.07
69 | C3U U9C G122A A140U | 1.02
70 | U5A U14C U119A G127A | 1.06
71 | U5A A24G U39C A64G | 0
72 | U5A U62A A79G G114A | 0.07

Row | Variant | self-cleavage
73 | A6C U15A A77U U115A | 0.78
74 | G4U U26A U45C U112C A129G | 1.31
75 | G4A U26C A67U A92U | 0.12
76 | U5A U26A G86A | 0.05
77 | C3U U39A U62C | 0.14
78 | A6G C61U A69U U132A | 0
79 | A6G G33U U52A U112A A142G | 0.87
80 | G4C A64U A117G U119A | 0.51
81 | U5C A57G A69G U132C | 0
82 | A6G G58U A59G G86A U96C U108C | 0.25
83 | U5C U81A U115A | 1.41
84 | G4C A77G U109C | 2.14
85 | U5C U14C U52C U81C A121U | 0.92
86 | U5G U14C C116U | 0.43
87 | U5A C98G U143C | 0.13
88 | U5C U26A U108C | 1.75
89 | G4A U20A A69G U85A | 0.13
90 | G4A A64G U143C | 0.26
91 | U5C A78G C84U U119C U134A | 0.46
92 | U5C U9A U39C A64G | 0.6
93 | U5A A6G U13C G34A U52C A69G | 0.17
94 | G4A U47A U62C | 0.08
95 | U5C C71U U112C | 0.55
96 | U5C C38U G40C G49A A69G G106C A117U | 0.31

Row | Variant | self-cleavage
97 | A6G A79U U87A U104C | 0.55
98 | G4A U20C C98U C116G A117U C131U | 0.27
99 | A6G G36U U46C | 0.74
100 | C3U U15A A30U C71U U87C U119C | 0.08
101 | A6G U12C G74A A79U U100C | 1
102 | A6G A22G A43U A79G | 1.06
103 | U5A U14C U52A U85C | 0.3
104 | U5C U134G A140G | 2.06
105 | C3U U104A A107G | 1.36
106 | U5C C17G A22G | 0.33
107 | U5C U20G A59G | 0.31
108 | U5C U15C A117U | 0.44
109 | U5C C101U U102C U104A U134A | 0.86
110 | U5A A31U A136G | 0.38
111 | U5C A69G A138G | 0.4
112 | A6C U14C U85A | 0.31
113 | C3U U39C U52A C66U A79G | 0.22
114 | U5A A50U A138G | 0.53
115 | U5C U15C U45A U102C | 0.98
116 | A6G U12A C37G | 0.35
117 | U5A U62C A140G | 0.07
118 | U5C A92U C99G U100A | 0
119 | U5C U13G U39A A79G | 1.34
120 | A6G C28G G82A | 1.11

Row | Variant | self-cleavage
121 | A6G A94G A121U | 0.26
122 | G4U U14C A24C U143C | 0.47
123 | A6C U23C G122A A124G | 0
124 | U5C U20A U39C G86U U96C A117G | 0.66
125 | U5A U39A C123U U132C | 0.59
126 | U5C U13C A24G | 0.57
127 | U5C U14A U52A U96C U112C A124U | 0.19
128 | U5C U13C A124G | 0
129 | U5C G80A A136G | 2.8
130 | U5C A31G U119A | 1.02
131 | A6G G53U A77U | 0.91
132 | C3U U20C C84G A94G U96A U119A A142G | 0
133 | A6G G54A U104A A124C A138G | 0.42
134 | U5C A64U G82A | 0.78
135 | U5A U46C U100A C111U U130A A142G | 1.44
136 | U5A A64G U81C | 0.4
137 | U5A U9A A50U A141U | 0.67
138 | A6G U12A A43U A65U A69G A107C | 0
139 | G4A U85A U100A A138G | 0.02
140 | U5C A42U A142G | 1.1
141 | U5C U14A G127C U134C A138G | 1.56
142 | U5A U81C A140G | 0.28
143 | A6G G49U A57G U73C U100A | 0.55
144 | U5A U39A U81G A94G | 0.51

Row | Variant | self-cleavage
145 | U5C U20A U45C A79G U96A U104C | 0
146 | U5C G27U C38A U73C U96A A129G | 0.09
147 | U5C U100C U112C | 0.61
148 | U5A A6G U13C U62C A141G | 0.4
149 | U5C U62A U73C G97A U109C U119C | 0
150 | G4C A31U U85A | 0.18
151 | A6G C61U U119C G137U | 0.47
152 | U5C U52C U87C | 0
153 | U5C G93U U96A U115A C120U | 0.08
154 | U5A A77G A136G | 1.72
155 | U5A G48A U52A A94G | 0.49
156 | A6G G34U A67U A117G A141G | 0.33
157 | U5A U9C U12G A64C A69C | 0
158 | A6G A94G U102A | 0.35
159 | U5C G74A U132C | 1.37
160 | U5C A67G A92G | 0
161 | U5C U45C U73C | 0.45
162 | U5C U14C U46C U112C | 0.35
163 | U5A A6G A77G U100C G125U | 2.92
164 | U5C U13C G53U A124U | 1.75
165 | G4A A57U A64U A136G | 0.09
166 | G4A U13C A124U | 0
167 | G4U U5C A94G | 0.45

Source: the RNAGym collection of RNA variant scans (doi:10.7554/elife.90254)
